Source: the supplement of paper PMC12217912
This is one part of the list. Sequences were assembled here from the parent chain. Inactive controls read about 0.05.

B1: TEV protease; numbered along this chain (parent)
chain: MGESLFKGPRDYNPISSSICHLTNESDGHTTSLYGIGFGPFIITNKHLFRRNNGTLVVQSLHGVFKVKDTTTLQQHLVDGRDMIIIRMPKDFPPFPQKLKFREPQREERICLVTTNFQTKSMSSMVSDTSCTFPSGDGIFWKHWIQTKDGQCGSPLVSTRDGFIVGIHSASNFTNTNNYFTSVPKNFMELLTNQEAQQWVSGWRLNADSVLWGGHKVFMVKPEEPFQPVKEATQL

Variants of: B1
Assay: raw area under fraction-flipped curve 0-4 h after induction (AUC4h, not background-subtracted), DNA-recorder readout of cleavage of the substrate (dimensionless); higher = more cleavage of the substrate by the protease variant
Conditions: temperature: 34 °C; time window: 0-4 h after rhamnose induction
Description: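 In vivo DNA recorder in E. coli TOP10(DE3) ΔrhaA at 34 °C. Each TEVp single-site mutant (parent TEVp 0) is paired with a single-site variant of the 7-mer TEVs (canonical ENLYFQ|S). The substrate sits between flexible linkers in a Bxb1-sfGFP-TEVs-SsrA fusion, so cleavage stabilises Bxb1 and speeds flipping of a recombination array, read by NGS. The value is the raw area under the fraction-flipped curve over 0-4 h after rhamnose induction (AUC4h), with ≥20 reads per time point. It is not background-subtracted; inactive controls average about 0.047.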
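Further: Bxb1 expression induced with 0.2% (w/v) L-rhamnose at OD600 near 0.5, cultures sampled hourly, flipped fraction per protease–substrate barcode pair counted by paired-end Illumina sequencing.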

| Variant | area with substrate ENDYFQS | area with substrate ENEYFQS | area with substrate ENHYFQS | area with substrate ENSYFQS | area with substrate ENVYFQS | area with substrate ENWYFQS | area with substrate ENYYFQS | area with substrate ENCYFQS | area with substrate ENKYFQS | area with substrate ENMYFQS |
| --- | --- | --- | --- | --- | --- | --- | --- | --- | --- | --- |
| W141N | 0.0476 | 0.0696 | 0.0584 | 0.0698 | 0.0566 | 0.0598 | 0.0495 |  |  |  |
| E103P | 0.0641 |  | 0.06 |  | 0.072 |  |  | 0.0508 | 0.0566 | 0.0642 |
| E103S |  |  | 0.0476 | 0.07 |  |  |  | 0.0625 |  |  |
| G153M | 0.0445 | 0.0499 |  |  |  |  |  | 0.0591 |  |  |
| G153I |  |  | 0.0362 |  |  |  |  | 0.0467 |  |  |
| K66H | 0.0669 |  |  | 0.0742 |  |  |  | 0.0734 |  |  |
| K66E |  | 0.0646 | 0.0603 | 0.051 | 0.0815 |  | 0.0526 | 0.0693 |  |  |
| K66A |  |  | 0.063 |  |  |  |  | 0.0631 | 0.0736 |  |
| H215F |  | 0.0635 | 0.0572 | 0.0802 |  |  |  | 0.0287 |  |  |
| S201N | 0.0589 | 0.0596 |  | 0.0722 | 0.0459 |  |  | 0.0592 | 0.0634 | 0.0686 |
| H143N |  |  | 0.0526 | 0.063 |  |  | 0.0395 | 0.0612 |  |  |
| R102N | 0.0456 |  | 0.0602 |  | 0.0451 |  |  | 0.0486 |  |  |
| L211N | 0.0698 |  | 0.0448 | 0.0551 |  |  |  | 0.131 | 0.0829 | 0.0875 |
| G2I | 0.0566 | 0.047 |  | 0.053 |  |  |  | 0.0734 |  | 0.116 |
| G2K | 0.0655 |  |  |  | 0.121 |  | 0.0578 | 0.0733 |  |  |
| V78I | 0.0642 |  |  |  |  |  | 0.0473 |  | 0.0548 |  |
| N172R | 0.0901 | 0.0647 | 0.0812 |  | 0.0562 |  |  | 0.0624 | 0.0637 | 0.0472 |
| E3V |  |  | 0.0593 |  |  |  |  | 0.0892 |  |  |
| T31I |  | 0.0689 |  | 0.0519 | 0.0972 |  | 0.0597 | 0.0625 |  |  |
| N175S |  | 0.0614 | 0.0201 | 0.0723 |  |  |  | 0.0632 |  |  |
| P228Y | 0.0481 | 0.058 |  | 0.045 |  |  |  | 0.0678 | 0.0626 |  |
| G214E |  |  |  | 0.0755 | 0.0664 |  |  | 0.0578 |  | 0.0459 |

| Variant | area with substrate ENDYFQS | area with substrate ENEYFQS | area with substrate ENHYFQS | area with substrate ENSYFQS | area with substrate ENVYFQS | area with substrate ENWYFQS | area with substrate ENYYFQS | area with substrate ENCYFQS | area with substrate ENKYFQS | area with substrate ENMYFQS |
| --- | --- | --- | --- | --- | --- | --- | --- | --- | --- | --- |
| T174G | 0.0777 | 0.0673 | 0.069 |  | 0.0659 |  |  | 0.0772 | 0.067 |  |
| Y179D | 0.077 |  |  | 0.0515 | 0.0526 |  |  |  |  | 0.0265 |
| D149P |  |  | 0.0578 | 0.0615 | 0.0583 | 0.0528 |  | 0.0731 | 0.0597 |  |
| R87V | 0.0673 |  |  |  |  |  |  | 0.0469 |  |  |
| N178S |  | 0.0611 |  | 0.15 | 0.0702 |  | 0.0807 | 0.0464 | 0.0665 |  |
| N178Y | 0.0672 | 0.0479 |  |  | 0.124 |  |  | 0.0849 |  |  |
| N178Q |  | 0.0731 |  |  |  |  |  | 0.065 |  |  |
| N178C |  |  |  |  |  |  |  | 0.061 |  |  |
| G166K |  | 0.0396 |  |  | 0.0478 |  |  | 0.0491 |  |  |
| V58M | 0.0521 | 0.0812 |  |  |  |  | 0.0717 |  |  |  |
| V58L |  | 0.0584 | 0.0618 |  | 0.0642 | 0.0612 |  | 0.0666 | 0.065 |  |
| G138Y | 0.075 | 0.0635 | 0.0559 | 0.0606 |  |  |  | 0.047 |  |  |
| Y34H |  |  | 0.0704 | 0.061 |  |  |  | 0.0855 |  |  |
| R51S |  |  |  |  |  |  |  | 0.0717 |  |  |
| R51N |  |  |  |  | 0.0863 |  |  | 0.0755 |  |  |
| P222T | 0.0676 |  |  | 0.0552 | 0.0647 | 0.053 | 0.0616 | 0.0563 |  |  |
| V183G | 0.0357 | 0.0589 | 0.0521 | 0.05 | 0.0598 |  |  | 0.0429 |  |  |
| D137H | 0.0645 | 0.0475 |  | 0.0315 |  | 0.0565 |  | 0.0657 |  |  |
| D137A |  | 0.0618 | 0.0301 | 0.0778 |  |  |  | 0.0571 |  |  |
| R109K | 0.0352 |  | 0.049 | 0.0662 | 0.0639 |  |  | 0.0469 |  |  |
| T181H | 0.0542 |  |  |  | 0.0571 |  |  | 0.0574 |  |  |
| T181V | 0.0688 | 0.0687 | 0.0597 | 0.0811 |  |  |  | 0.0662 | 0.0645 |  |

Same assay, conditions: temperature: 34 °C; time window: 0-4 h after rhamnose induction

| Variant | area with substrate ENQYFQS | area with substrate ENRYFQS | area with substrate ENFYFQS | area with substrate ENGYFQS | area with substrate ENIYFQS | area with substrate ENNYFQS | area with substrate ENTYFQS | area with substrate ENPYFQS |
| --- | --- | --- | --- | --- | --- | --- | --- | --- |
| E103P | 0.0529 | 0.0608 |  |  |  |  |  |  |
| E103S |  | 0.0696 | 0.0699 |  |  |  |  |  |
| G153M | 0.0485 |  | 0.0588 | 0.0478 | 0.0546 | 0.0502 | 0.0492 |  |
| G153I |  |  | 0.0325 | 0.045 |  | 0.0553 |  | 0.0193 |
| K66H | 0.0706 | 0.0612 | 0.0781 |  |  | 0.0578 | 0.0596 |  |
| K66E | 0.0638 | 0.056 |  | 0.0554 |  |  |  | 0.0547 |
| K66A |  | 0.0781 |  |  |  |  |  |  |
| H215F | 0.0598 |  | 0.0551 | 0.0589 |  | 0.0508 |  |  |
| S201N | 0.0558 | 0.0575 | 0.0654 | 0.0513 |  | 0.0419 | 0.057 | 0.0567 |
| H143N |  |  |  |  |  | 0.069 |  |  |
| L211N |  |  |  | 0.067 |  |  |  |  |
| G2I | 0.0613 |  | 0.0518 |  |  | 0.0576 |  | 0.0457 |
| G2K | 0.0531 | 0.0553 |  |  |  |  |  | 0.0409 |
| V78I |  | 0.0519 |  | 0.0647 |  |  | 0.0934 |  |
| N172R | 0.058 |  |  |  |  |  |  |  |
| E3V |  |  |  |  |  |  | 0.0617 |  |
| T31I | 0.0447 |  | 0.0657 | 0.0639 |  |  |  |  |
| N175S |  |  |  | 0.0667 |  |  | 0.0585 |  |
| G214E | 0.0673 | 0.0825 | 0.057 | 0.0563 |  | 0.0762 | 0.0876 |  |
| T174G | 0.0576 |  | 0.0692 |  | 0.0848 | 0.0567 | 0.0625 | 0.0666 |
| Y179D |  |  | 0.0619 |  |  |  |  |  |

| Variant | area with substrate ENQYFQS | area with substrate ENRYFQS | area with substrate ENFYFQS | area with substrate ENGYFQS | area with substrate ENIYFQS | area with substrate ENNYFQS | area with substrate ENTYFQS | area with substrate ENPYFQS |
| --- | --- | --- | --- | --- | --- | --- | --- | --- |
| D149P | 0.0751 |  |  |  |  | 0.0656 |  |  |
| R87V | 0.0582 |  | 0.0548 |  |  |  |  |  |
| N178S | 0.0416 | 0.0367 | 0.0667 |  | 0.12 | 0.0597 |  |  |
| N178Y | 0.0744 |  |  |  | 0.181 | 0.0553 | 0.0866 |  |
| N178Q | 0.065 | 0.0904 |  |  |  | 0.0504 |  | 0.0465 |
| N178C |  |  | 0.0649 |  |  | 0.065 |  |  |
| G166K |  | 0.0529 |  | 0.0409 |  |  | 0.0616 | 0.0403 |
| V58M | 0.0553 | 0.0484 | 0.0635 |  | 0.118 |  | 0.0618 |  |
| V58L | 0.0561 |  |  |  |  |  |  |  |
| G138Y | 0.0855 | 0.0582 |  |  | 0.0945 |  |  | 0.0592 |
| Y34H | 0.0599 |  | 0.0523 | 0.0496 |  |  |  |  |
| R51S | 0.0697 |  |  | 0.062 |  |  | 0.053 |  |
| R51N |  |  | 0.0828 |  |  |  |  |  |
| P222T |  |  | 0.059 |  |  | 0.0501 | 0.055 | 0.0631 |
| V183G | 0.0441 |  | 0.0906 | 0.0575 | 0.0523 |  |  | 0.0511 |
| D137H | 0.0737 |  |  | 0.0541 |  |  | 0.0702 |  |
| D137A | 0.0598 |  |  | 0.0708 |  | 0.0739 | 0.0584 | 0.108 |
| R109K | 0.0508 |  |  |  |  | 0.0735 |  | 0.047 |
| T181H | 0.0622 |  | 0.0682 | 0.0619 |  |  |  |  |
| T181V | 0.0555 |  |  |  |  |  | 0.0388 | 0.0464 |
